Data on 172 sequences can be found in PMC6212790.

The other results are listed elsewhere or left out. At the low end of the ranking the order means little.

The target of the assay is T1, GST-Rok-C97-191 (UniProt O34857).
T1 sequence: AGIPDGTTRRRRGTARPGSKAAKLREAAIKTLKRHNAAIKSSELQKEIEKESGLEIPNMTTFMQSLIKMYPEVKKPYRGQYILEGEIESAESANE
The assay is described as follows: protein binding microarray.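 Note: rank score from −0.5 (least bound) to 0.5 (best bound).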 The following applies: Rok is a gene silencer of Bacillus subtilis; high values mean tight binding; most listed sequences are background and not binding sites; double strand, one strand shown.
For the sequence CAGCATCA, the binding signal turned out to be 0.0456 E-score.
As to ATAAGGAA, the binding signal was 0.0521 E-score.
As for ATGTACAC, the figure is 0.238 E-score; as for CTCCACTA, 0.107 E-score; as for CGGACTTC, -0.162 E-score.
As for CCAGTAAC, the figure is -0.0778 E-score; as for AGTGGCCA, -0.188 E-score; as for CTCGGTAC, 0.111 E-score.
As for ACGGCAGA, the figure is -0.0257 E-score.
ACGATTCG: the binding signal is -0.11 E-score.
As for ATCACGAG, the figure is -0.0497 E-score; as for ATCAAGAA, -0.0571 E-score.
As for AAAATCTT, the figure is -0.0838 E-score; as for CGGTAGTC, 0.174 E-score.
As for GTTTTTTA, the figure is 0.15 E-score.
With GGAGCCTA, the binding signal is -0.33 E-score.
The figure for CTGGTTCA is -0.101 E-score; for AGGCTTCA it is -0.0481 E-score.
Turning to CTGAGAAA, the binding signal is 0.0203 E-score.
AGGGCCGC registered a binding signal of -0.335 E-score.
The figure for GTGACAAA is 0.0673 E-score; for AAAGCAAC it is -0.0343 E-score; for CCACAATA it is 0.2 E-score.
The figure for TACACGAA is 0.0959 E-score.
As for CCAAAAGC, the figure is -0.0996 E-score; as for CTCCTATC, 0.00619 E-score; as for AATCGATA, 0.214 E-score.
In turn, GAGAGAGA came in with a binding signal of -0.111 E-score.
Sequence AGGCTTAT showed a binding signal of 0.0397 E-score.
The sequence AGAACCCC registered a binding signal of -0.293 E-score.
As for GAAGAACA, the figure is -0.0668 E-score; as for AGAAGCAA, 0.194 E-score.
On to ATGCCTTG, for which the binding signal came out at 0.0183 E-score.
As for CGGCTGTA, the figure is -0.047 E-score.
The figure for GCCAGCTA is 0.0405 E-score.
As for CCCGTACA, the figure is -0.114 E-score; as for GAGGGAAA, -0.161 E-score; as for ACCGACTA, 0.0663 E-score.
GAAATCTC displayed a binding signal of 0.209 E-score.
In the case of AGTCGGAT, the binding signal is -0.085 E-score.
As for ACTTTACC, the figure is 0.094 E-score; as for CGCTCGAG, -0.0761 E-score.
As for GCAGGACC, the figure is -0.239 E-score.
As for CGTTGTTA, the figure is 0.102 E-score; as for GAAATGCA, -0.0957 E-score.
Take GGGCCGGA: the binding signal is -0.259 E-score.
The figure for GGTACGCA is -0.136 E-score.
As for AAGACGAT, the figure is -0.226 E-score; as for AGCTCATA, 0.0471 E-score.
As for AGGATTCA, the figure is -0.0646 E-score.
For GAGCTCAA, the binding signal was -0.0643 E-score.
The figure for ACCACACT is -0.0178 E-score.
Sequence CCGCACTC had a binding signal of -0.333 E-score.
The figure for GGAATCTA is 0.339 E-score.
As for GCGCTGCA, the figure is -0.212 E-score; as for CCATTTGC, -0.0125 E-score.
As for AGTCATCG, the figure is -0.0441 E-score.
With AGATGGTC, the binding signal amounted to 0.089 E-score.
The figure for AGCAGGTA is 0.00328 E-score; for AAGTGAGC it is -0.0867 E-score; for ACGCCGTG it is -0.131 E-score.
As for GTTTACCA, the binding signal was -0.0712 E-score.
The figure for AGTTCAAC is 0.0835 E-score; for GAAGGTGA it is -0.134 E-score; for GGCGTCAA it is -0.0906 E-score.
The figure for AGGATAAG is 0.161 E-score; for AAATTTCA it is 0.156 E-score.
Regarding GAGTGTGC, the binding signal was -0.219 E-score.
As for GATTTCGC, the figure is 0.0941 E-score.
The figure for AACGACCA is -0.104 E-score.
As for ACGCTGCC, the figure is -0.2 E-score.
With GACTCATA, the binding signal was -0.063 E-score.
The figure for AGTATAGG is 0.315 E-score; for AACGCCGC it is -0.261 E-score.
In turn, GGTCTTTA showed a binding signal of 0.0351 E-score.
The figure for CACGCTTC is -0.241 E-score; for GCGAATGA it is -0.144 E-score.
The figure for AGCGACGA is 0.0827 E-score.
As for ACACCAGT, the figure is -0.109 E-score.
On to CCGAACGC, for which the binding signal was -0.0972 E-score.
Turning to CAGTTGGG, the binding signal is -0.107 E-score.
As for GTTTGTGA, the figure is 0.11 E-score; as for CAGTGCCC, -0.0787 E-score.
The figure for CGTTCGGC is -0.0694 E-score; for ACCGCAAT it is 0.0391 E-score.
In the case of CAAGCTTA, the binding signal is -0.022 E-score.
The figure for AGCGTGAT is 0.0184 E-score; for AAACTACT it is 0.464 E-score.
As for CGTGGGCC, the figure is -0.272 E-score; as for GATGGAAC, -0.111 E-score.
The figure for CGTTATAC is 0.257 E-score.
For GTTGCGAA, the binding signal is -0.15 E-score.
On to CATATATC, for which the binding signal stood at 0.279 E-score.
As for AGCTGCCC, the figure is -0.165 E-score; as for AGTTTCCG, 0.112 E-score.
As for ACATTATG, the figure is 0.0538 E-score; as for AACGATCG, -0.132 E-score; as for CTAGCGCA, 0.195 E-score.
The figure for AGAGGTTA is 0.0179 E-score; for CCAGGAAG it is -0.0444 E-score; for CGTAAGTC it is -0.00837 E-score.
Sequence TAAGTACA had a binding signal of 0.35 E-score.
The figure for CAGCTGAA is -0.13 E-score; for CTCAACTA it is 0.146 E-score.
As for TTAAACAA, the figure is 0.065 E-score; as for CAAATATG, 0.161 E-score.
AAATTATT yielded a binding signal of 0.296 E-score.
The figure for ATAGTTGC is 0.306 E-score.
For AGTACGCC, the binding signal is -0.0846 E-score.
The figure for CCTATCCC is -0.131 E-score; for AAGAAAAC it is -0.235 E-score; for TAGCCATA it is 0.124 E-score.
Turning to AGCGACGC, the binding signal was -0.221 E-score.
As for GAAACCGC, the figure is 0.00507 E-score; as for CCGGAAAG, -0.101 E-score; as for ACGTTCAA, -0.0251 E-score.
As for ATCAGATA, the figure is 0.133 E-score.
The figure for GCGGTAGC is 0.0462 E-score.
On to AGGTGGGC, for which the binding signal was -0.3 E-score.
AATCATCG: the binding signal is -0.145 E-score.
The figure for CTTGATAC is 0.115 E-score.
The figure for CGTTAACA is 0.021 E-score; for AACTACAT it is 0.364 E-score; for CTACGCTA it is 0.244 E-score.
As for GTACGGCA, the figure is -0.0127 E-score.
For the sequence CAGCACAA, the binding signal is -0.0318 E-score.
In turn, AATGCAAT had a binding signal of 0.0863 E-score.
As for ATATGGAA, the binding signal was 0.208 E-score.
The figure for ATTTGCCG is 0.00153 E-score; for CTCAGCGC it is 0.0797 E-score.
The figure for CTTCGATC is -0.16 E-score.
As for CCGAGAGG, the figure is -0.212 E-score.
ATATATTG gave a binding signal of 0.419 E-score.
The figure for AGAATCCA is -0.0644 E-score; for CTATACGC it is 0.0808 E-score; for GCTGAGTA it is -0.0511 E-score.
The figure for GGTATACC is 0.207 E-score.
For the sequence CCGAGCGA, the binding signal is -0.239 E-score.
Consider CTGGACCC, for which the binding signal is -0.377 E-score.
The figure for GACTGTGA is -0.149 E-score.
Regarding CAAATAGA, the binding signal turned out to be 0.16 E-score.
The figure for ACGATCAC is -0.239 E-score; for CATGCGAA it is -0.0749 E-score.
As to AGGCATTA, the binding signal amounted to 0.153 E-score.
The figure for AGACTCTC is -0.185 E-score; for GTTAGCAA it is 0.187 E-score; for ACGCTTGC it is -0.1 E-score.
As for CCTAATTC, the figure is 0.115 E-score; as for CAGGATGC, -0.064 E-score.
In the case of CGCAGGAC, the binding signal was -0.301 E-score.
Sequence CCATAAGG registered a binding signal of -0.214 E-score.
As for GGATGGAC, the figure is -0.187 E-score; as for CATGCTGC, -0.187 E-score; as for CCGTGGGA, -0.319 E-score.
As for AGAACGAC, the figure is -0.0999 E-score; as for AGAAGCTA, 0.0771 E-score.
Take ATGCCTGG: the binding signal is -0.108 E-score.
Turning to AGATATGA, the binding signal turned out to be 0.175 E-score.
The figure for ACTTATTG is 0.0793 E-score; for TGGTAAAA it is 0.337 E-score; for AGCCTCGG it is -0.367 E-score.
The figure for ACACCTCC is -0.0446 E-score; for GGCGTTAC it is -0.0381 E-score; for GTTGTGCA it is 0.168 E-score.
The figure for AGCGCATC is -0.0204 E-score; for GGGGTATA it is 0.01 E-score.
AAGAATCC: the binding signal turned out to be 0.0635 E-score.
As for GACATCCA, the figure is -0.0705 E-score.
Sequence ACCACAAT showed a binding signal of 0.0536 E-score.
As for CGAAAAAC, the figure is -0.0633 E-score.
As for AAGCTAAT, the figure is 0.254 E-score; as for ATGAAACC, -0.207 E-score.
